Reference: PubChem BioAssay (NCI)
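Results reflect a 48-hour exposure of cells in 96-well plates to compound at five concentrations. GI50 = concentration required for 50% inhibition of growth. TGI is the concentration that stops growth completely.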

System: NCI-H322M lung
Experiment: DTP human tumour cell line panel, 48 h

Row | SMILES | TGI | GI50
1 | N#Cc1c(-c2ccco2)c2c(n(C3OC(CO)C(O)C(O)C3O)c1=S)CCCC2 (configuration not stated) | > 100 µM | 
2 | COc1ccc(C[C@@H]2CN(C(=O)c3ccccc3)[C@H](Cc3ccc(O)cc3)CN2C(=O)c2ccccc2)cc1Br | > 100 µM | 
3 | Cc1c(C)c(C)c(-n2c(=O)n(C)c(=O)n2C(C)(C)C)c(C)c1C | > 100 µM | 
4 | CN(NC(=O)c1ccco1)C1=NCCCCN1 | > 100 µM | 
5 | CC1OCC2OC(C)OC(C3C4=C(CC(C)(C)CC4=O)OC4=C3C(=O)CC(C)(C)C4)C2O1 (configuration not stated) | > 100 µM | 
6 | O=c1/c(=C/c2cccc3ccccc23)sc2nc3ccccc3n12 | > 100 µM | 
7 | COc1ccc(C2SCC(=O)N2N=C2NC(=O)CC(=O)N2)cc1 (configuration not stated) | > 100 µM | 
8 | COc1ccc2c(c1)C(=O)c1c-2c(NCCCN(C)C)nc2ccccc12 | 19.3 µM | 5.79 µM
9 | CCOC(=O)NNC(=O)NCCNC(=O)NNC(=O)OCC | > 100 µM | 
10 | CN(C)CCC1(C2=CCCC2)CC/C(=C\c2ccc3c(c2)OCO3)C1=O (configuration not stated) | 29.6 µM | 
11 | CC(C)(C)C1CC[C@H]2c3c([nH]c4ccc(Br)cc34)[C@H]3C(=O)N(c4ccccc4)C(=O)[C@H]3[C@H]2C1 (some centres not stated) | > 100 µM | 
12 | Cc1c2c(n3c(nc4ccccc43)c1C#N)N(c1ccc(Cl)cc1)CC2 | > 100 µM | 
13 | c1cnc2c(c1)-n1cccc1C1(CCOCC1)NN2 | > 100 µM | 
14 | CCOC(=O)C(NCc1ccccc1)(NC(=O)c1ccccc1)C(F)(F)F (configuration not stated) | > 100 µM | 
15 | CCN(CC)c1ccc(NC(C(=O)c2ccccc2)c2ccccc2)cc1 (configuration not stated) | 26.1 µM | 12.1 µM
16 | O=C1C=C(SCCO)C(=O)c2ccccc21 | 3.2 µM | 1.75 µM
17 | OCC(O)COc1ccc(Br)cc1 (configuration not stated) | > 100 µM | 

Row | SMILES | TGI | GI50
18 | [Cu+2].[Cu+2].[O-]c1ccccc1C=Nc1ccccc1[O-].[O-]c1ccccc1C=Nc1ccccc1[O-] | 21.2 µM | 9.31 µM
19 | ClCCN(CCCl)Cc1ccc(Nc2ccnc3cc(Cl)ccc23)cc1 | 6.8 µM | 2.79 µM
20 | C[C@@H]1O[C@@H](O[C@H]2C[C@@H](O)[C@]3(CO)C4C(CC[C@]3(O)C2)[C@@]2(O)CC[C@H](C3=CC(=O)OC3)[C@@]2(C)C[C@H]4O)[C@H](O)[C@H](O)[C@H]1O (some centres not stated) | 0.0948 µM | 0.0198 µM
21 | COCCNCC(O)Cn1c2ccc(Cl)cc2c2cc(Cl)ccc21 (configuration not stated) | 6.54 µM | 2.47 µM
22 | O=[N+]([O-])/C(C(Cl)=C(Cl)Cl)=C1\Nc2ccccc2O1 | > 100 µM | 
23 | O=C(Cc1ccccc1)Oc1ccc2c(-c3ccccc3)c(C(=O)Nc3ccc(Cl)cc3)c(=O)oc2c1 | > 100 µM | 
24 | Nc1ccccc1C#C/C=C\C#Cc1ccc(F)cc1F | 34.9 µM | 10.5 µM
25 | Cc1cc(N(CCCl)CCCl)ccc1C=Nc1cccnc1 | > 100 µM | 49 µM
26 | COC(=O)C(=O)C(C(=O)C(=O)Nc1ccccc1C(=O)OC)c1nc2ccc(C(=O)c3ccccc3)cc2[nH]c1=O (configuration not stated) | > 100 µM | 
27 | C=C(NC(=O)C(=C)NC(=O)c1csc(C2=NC3c4csc(n4)C4NC(=O)c5csc(n5)C(C(C)(O)C(C)O)NC(=O)C5CSC(=N5)/C(=C/C)NC(=O)C(C(C)O)NC(=O)c5csc(n5)C3(CC2)NC(=O)C(C)NC(=O)C(=C)NC(=O)C(=C)NC(=O)C(C(C)C)NC2C=Cc3c(C(C)O)cc(nc3C2O)C(=O)OC4C)n1)C(N)=O (configuration not stated) | > 100 µM | 
28 | c1ccc2[nH]c(-c3nc4ccccc4o3)nc2c1 | > 100 µM | 
29 | CC1=C/C(=C(\c2ccc(N(C)C)cc2)c2ccc([N+](C)(C)C)cc2)C=CC1=[N+](C)C | 18.9 µM | 
30 | O=CC1=CCCC2(C1)OCCO2 | > 100 µM | 
31 | Cc1ccc(OP2(=O)Oc3ccc4ccccc4c3CN2c2ccc(Cl)cc2)cc1C (configuration not stated) | > 100 µM | 
32 | CN(CCNC(=O)c1[nH]nc2c1ccc1ccccc12)CCNC(=O)c1[nH]nc2c1ccc1ccccc12 | 5.86 µM | 
33 | CC(C)C1CN1CC(O)Cn1ccnc1[N+](=O)[O-] (configuration not stated) | > 100 µM | 
